# Structures can show the parent of a compound that is named as a salt. ± gives the standard deviation of the averaged measurements. The full ranking holds about 2,600 compounds; the median of “MBP+ mature oligodendrocyte number relative to DMSO vehicle control” is about -0.34, and the highest 2% start at about 13. The list shows a part of the results.
# System: jimpy (Plp1 jimpy) mouse iPSC-derived oligodendrocyte progenitor cells
# Test: MBP+ mature oligodendrocyte number relative to DMSO vehicle control (SDs above negative control mean); higher = more surviving jimpy oligodendrocytes (rescue)
# Settings: 10 µM; 3 days
# 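Further: 10 µM single dose with 3-day oligodendrocyte differentiation.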
row,SMILES,MBP+ mature oligodendrocyte number
1,CCCCCCCCCCCC1=C(O)C(=O)C=C(O)C1=O [Embelin],3.95
2,COc1c2ccoc2cc2oc(=O)ccc12 [Bergapten],-1.11
3,CNCc1cc(-c2ccccc2F)n(S(=O)(=O)c2cccnc2)c1,2.37
4,O=C1C(O)=C([C@H]2CC[C@H](c3ccc(Cl)cc3)CC2)C(=O)c2ccccc21 [Atovaquone],0.104
5,"CC(C)NCC(O)c1ccc(O)c(O)c1 (single isomer, unassigned; (-)) [(-)-Isoproterenol hydrochloride]",-0.48
6,NCCNS(=O)(=O)c1cccc2c(Cl)cccc12 [A3 hydrochloride],-2.82
7,Cc1ccccc1C(OCCN(C)C)c1ccccc1 (centres undefined) [Orphenadrine hydrochloride],-1.11
8,Cc1ccccc1C(OCCN(C)C)c1ccccc1 (centres undefined) [Orphenadrine Citrate],-0.467
9,C=C(c1ccc(C(=O)O)cc1)c1cc2c(cc1C)C(C)(C)CCC2(C)C [Bexarotene],0.996 ± 0.18
10,CN(C)CCCCC(=O)Nc1ccc(NC(=S)NC(=O)c2ccc(C(C)(C)C)cc2)cc1 [Tenovin-6],< -6.35
11,CC(C)(C)NCC(O)c1cc(O)cc(O)c1 (centres undefined) [Terbutaline hemisulfate],0.146
12,O=C(O)CCCCC1CCSS1 (racemic) [(±)-alpha-Lipoic Acid],-1.6
13,CC[N+](CC)(CC)CCOc1cccc(OCC[N+](CC)(CC)CC)c1OCC[N+](CC)(CC)CC [Gallamine triethiodide],-1.8
14,CC[N+](CC)(CC)CCOc1cccc(OCC[N+](CC)(CC)CC)c1OCC[N+](CC)(CC)CC [Gallamine Triethiodide],-0.108
15,CCOC(=O)[N-]c1c[n+](N2CCOCC2)no1 [Molsidomine],1.13
16,CCN(CCCOc1ccc2c(Nc3cc(CC(=O)Nc4cccc(F)c4)[nH]n3)ncnc2c1)CCOP(=O)(O)O [Barasertib (AZD1152-HQPA)],-3.82
17,CCc1oc2ccccc2c1C(=O)c1cc(Br)c(O)c(Br)c1 [Benzbromarone],0.238
18,CC/C(=C(\c1ccccc1)c1ccc(OCCN(C)C)cc1)c1ccccc1 [Tamoxifen citrate],-3.78
19,CC/C(=C(\c1ccccc1)c1ccc(OCCN(C)C)cc1)c1ccccc1 [Tamoxifen Citrate],-5.06
20,CC/C(=C(\c1ccccc1)c1ccc(OCCN(C)C)cc1)c1ccccc1 [Tamoxifen],< -4.47
21,CCCCC[C@H](O)/C=C/[C@H]1[C@H](O)CC(=O)[C@@H]1CCCCCCC(=O)O [Alprostadil],0.793
22,COC(=O)[C@]12CCC(C)(C)C[C@H]1[C@H]1C(=O)C=C3[C@@]4(C)C=C(C#N)C(=O)C(C)(C)[C@@H]4CC[C@@]3(C)[C@]1(C)CC2 [Bardoxolone Methyl],-4.64
23,O=C(O)c1cccnc1C(=O)O [Quinolinic acid],-0.533
24,CCN1CCC[C@H]1CNC(=O)c1c(O)c(Cl)cc(Cl)c1OC [S(+)-Raclopride L-tartrate],-0.533
25,O=C(O)c1ccccc1 [Benzoic Acid],0.66
26,CN(CC[C@@H](Oc1ccc(C(F)(F)F)cc1)c1ccccc1)CC(=O)[O-].[Li+],0.588
27,CC[C@@H]([C@H](C)O)n1ncn(-c2ccc(N3CCN(c4ccc(OC[C@@H]5CO[C@@](Cn6cncn6)(c6ccc(F)cc6F)C5)cc4)CC3)cc2)c1=O [Posaconazole],-6.35

row,SMILES,MBP+ mature oligodendrocyte number
1,CN1CCC[C@@H]1CCO[C@](C)(c1ccccc1)c1ccc(Cl)cc1 [Clemastine fumarate],-3.26
2,CN1CCC[C@@H]1CCO[C@](C)(c1ccccc1)c1ccc(Cl)cc1 [Clemastine Fumarate],< -5.15
3,CCOc1ccc(NC(C)=O)cc1 [Phenacetin],-0.22
4,O=C(c1ccc(OCCCc2c[nH]cn2)cc1)C1CC1 [Ciproxifan],2.09
5,O=C(c1ccc(OCCCc2c[nH]cn2)cc1)C1CC1 [Ciproxifan hydrochloride],0.921
6,CC(C)[C@H](N)C(=O)OCC(CO)OCn1cnc2c(=O)[nH]c(N)nc21 (some centres undefined) [Valganciclovir hydrochloride hydrate],1.08
7,CC(C)[C@H](N)C(=O)OCC(CO)OCn1cnc2c(=O)[nH]c(N)nc21 (some centres undefined) [Valganciclovir HCl],3.45
8,CC(C(=O)O)c1ccc(C(=O)c2cccs2)cc1 (centres undefined) [Suprofen],-1.01
9,COc1cc2ncnc(Nc3ccc(F)c(Cl)c3)c2cc1OCCCN1CCOCC1 [Gefitinib (ZD1839)],-6.52
10,CN1CCN(c2nc(C3=C(c4c[nH]c5ccccc45)C(=O)NC3=O)c3ccccc3n2)CC1 [Sotrastaurin],-4.18
11,CCN1CCN(Cc2ccc(Nc3ncc(F)c(-c4cc(F)c5nc(C)n(C(C)C)c5c4)n3)nc2)CC1,< -6.35
12,COCCc1ccc(OCC(O)CNC(C)C)cc1 (centres undefined) [Metoprolol Tartrate],-1.46
13,COc1ccc(CN2CCN(C(c3ccc(F)cc3)c3ccc(F)cc3)CC2)c(OC)c1OC [Lomerizine HCl],-6.27
14,CC(C)Cc1ccc(C(C)C(=O)O)cc1 (centres undefined) [Ibuprofen],3.85
15,COC(=O)C(N)Cc1ccc(Cl)cc1 (racemic) [DL-p-Chlorophenylalanine methyl ester hydrochloride],-0.433
16,Cc1cnc(C(=O)O)c[n+]1[O-] [Acipimox],1.06
17,O=C(c1cncc(Br)c1)N1CCC(N2CCCC2)CC1,2.61
18,O=c1c(O)c(-c2ccc(O)c(O)c2)oc2cc(O)cc(O)c12 [Quercetin],-2.91
19,O=c1c(O)c(-c2ccc(O)c(O)c2)oc2cc(O)cc(O)c12 [Quercetin dihydrate],-3.25
20,O=c1c(O)c(-c2ccc(O)c(O)c2)oc2cc(O)cc(O)c12 [Quercetin Dihydrate],-3.19
21,O=C(O)C1(C(=O)O)CCC1.[NH2-].[NH2-].[Pt+2] [Carboplatin],-1.86 ± 0.3
22,"N[C@H](C(=O)O)[C@H]1C[C@@H]1C(=O)O [(2S,1'S,2'S)-2-(carboxycyclopropyl)glycine]",0.555
23,N[C@@H](Cc1ccc(O)c(I)c1)C(=O)O [3-Iodo-L-tyrosine],-0.049
24,O=C(O)[C@H]1O[C@@H](Oc2cc3oc(-c4ccccc4)cc(=O)c3c(O)c2O)[C@H](O)[C@@H](O)[C@@H]1O [Baicalin],0.395
25,Nc1ccc(S(=O)(=O)Nc2ccccn2)cc1 [Sulfapyridine],-0.467
26,Nc1ccn([C@@H]2O[C@H](CO)[C@@H](O)[C@@H]2O)c(=O)n1 [Cytarabine],-2
27,Nc1ccn([C@@H]2O[C@H](CO)[C@@H](O)[C@@H]2O)c(=O)n1 [Cytosine-1-beta-D-arabinofuranoside hydrochloride],-1.85

row,SMILES,MBP+ mature oligodendrocyte number
1,Nc1ncnc2c1ncn2C1CCCO1 (centres undefined),0.217
2,Cc1[nH]c2ccccc2c1CCNCc1ccc(/C=C/C(=O)NO)cc1 [Panobinostat (LBH589)],< -6.7
3,c1cncc(CN2CCC(n3ncc4c(N5CCOCC5)nc(-c5ccc6[nH]ccc6c5)nc43)CC2)c1,< -6.01
4,COC1CCN(C(=O)c2cc(Cc3n[nH]c(=O)c4ccccc34)ccc2F)CC1,2.69
5,CCOc1ccccc1OC(c1ccccc1)C1CNCCO1 (centres undefined) [Reboxetine mesylate],-2.75
6,O=c1[nH]cnc2c1ncn2[C@@H]1O[C@H](CO)[C@@H](O)[C@H]1O [Inosine],-0.556
7,CCCCOc1cc(CC2CNC(=O)N2)ccc1OC (centres undefined),-0.668
8,O=C1NC(=O)/C(=C/c2ccc3c(c2)OC(F)(F)O3)S1,5.1
9,CC(C)Cn1c(=O)n(C)c(=O)c2[nH]cnc21 [3-Isobutyl-1-methylxanthine],0.657
10,COc1cc([C@@H]2c3cc4c(cc3[C@@H](O[C@@H]3O[C@@H]5CO[C@@H](c6cccs6)O[C@H]5[C@H](O)[C@H]3O)[C@H]3COC(=O)[C@H]23)OCO4)cc(OC)c1O [Teniposide],< -5.15
11,O=c1ccc2ccccc2o1 [Coumarin],1.84
12,Nc1ccc(C(=O)Nc2cccc(-c3nc(N4CCOCC4)c4oc5ncccc5c4n3)c2)cn1,-6.52
13,CN(C)CCCN1c2ccccc2Sc2ccc(Cl)cc21 [Chlorpromazine hydrochloride],< -3.34
14,CN(C)CCCN1c2ccccc2Sc2ccc(Cl)cc21 [Chlorpromazine HCl],-4.7
15,Cc1nc(-c2ccc(OCC(C)C)c(C#N)c2)sc1C(=O)O [Febuxostat],3.94
16,CN(C)c1ccc(C(=C2C=CC(=[N+](C)C)C=C2)c2ccc(N(C)C)cc2)cc1 [Crystal Violet],< -5.15
17,COc1ccc(CC2c3cc(OC)c(OC)cc3CC[N+]2(C)CCC(=O)OCCCCCOC(=O)CC[N+]2(C)CCc3cc(OC)c(OC)cc3C2Cc2ccc(OC)c(OC)c2)cc1OC (centres undefined) [Atracurium Besylate],1.6
18,CC(=O)[C@H]1CC[C@H]2[C@@H]3CC=C4C[C@@H](O)CC[C@]4(C)[C@H]3CC[C@]12C [Pregnenolone],-3.89
19,Oc1cc2c(cc1O)[C@@H]1c3ccc(O)c(O)c3OC[C@]1(O)C2 [Hematoxylin],1.57
20,CC(C(=O)O)c1ccc2c(c1)CC(=O)c1ccccc1S2 (centres undefined) [Zaltoprofen],-0.848
21,Cc1nc(Nc2ncc(C(=O)Nc3c(C)cccc3Cl)s2)cc(N2CCN(CCO)CC2)n1 [Dasatinib],< -6.7
22,CCN1CCN(Cc2ccc(-c3cc4c(N[C@H](C)c5ccccc5)ncnc4[nH]3)cc2)CC1,< -5.15
23,CCOC(=O)c1c(CSc2ccccc2)n(C)c2cc(Br)c(O)c(CN(C)C)c12 [Arbidol HCl],-3.63
24,Cc1cc(Nc2nc(N[C@@H](C)c3ccc(F)cc3)c(C#N)cc2F)n[nH]1,-4.36
25,CCCCN1CCCCC1C(=O)Nc1c(C)cccc1C (centres undefined) [Bupivacaine HCl],-0.388

# Source: the supplement of paper PMC6135742
